{
  "source": "PubChem BioAssay AID894",
  "about": "(National Center for Advancing Translational Sciences (NCATS), 2007)",
  "note": "In all, about 150,000 compounds went through this assay and about 6,500 (4.3%) were called active. The shares of active, inactive and inconclusive entries below differ from those in the screen. Calls come from the whole dose curve; as a rule, active = well fitted inhibition curve with a large enough effect (not every such curve was filed as active); inconclusive = small, poorly fitted or top-dose-only effect, or another doubt; inactive = no such curve, though single readings can be large or run the other way. No potency is given beside an inconclusive call; the fits are too rough. % is set by controls: 0 for no effect and ±100 for the full control effect; potency is the fitted concentration of half-maximal effect; tags give direction and shape of the fitted curve.",
  "data": [
    {"target": "15-hydroxyprostaglandin dehydrogenase [NAD(+)] (Homo sapiens) (UniProt P15428)", "sequence (P15428 whole entry, looked up)": "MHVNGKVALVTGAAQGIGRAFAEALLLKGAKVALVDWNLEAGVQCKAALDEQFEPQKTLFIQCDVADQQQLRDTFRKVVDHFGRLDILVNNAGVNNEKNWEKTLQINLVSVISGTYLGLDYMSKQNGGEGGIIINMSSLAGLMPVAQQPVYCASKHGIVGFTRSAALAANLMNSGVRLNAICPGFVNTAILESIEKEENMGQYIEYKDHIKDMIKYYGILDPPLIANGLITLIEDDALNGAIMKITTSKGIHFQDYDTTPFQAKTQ", "test": "qHTS Assay for Inhibitors of HPGD (15-Hydroxyprostaglandin Dehydrogenase)", "settings": "purified HPGD, NADH fluorescence kinetic, PGE2 substrate; activity change, negative = inhibition: stronger effect = lower value", "method_in_brief": "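NADH formation kinetics: reaction with 30 uM PGE2 and 1 mM NAD+ (final), 20 nM enzyme, Tris-HCl pH 8 with Tween 20, after 15 min compound preincubation at room temperature. Fluorescence change, last versus first of five reads.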", "values": [
      {"compound": "O=C(NCc1ccc(F)cc1)c1cc2sccc2n1Cc1ccc(F)cc1", "Potency": "inconclusive [inhibitor, partial curve]"},
      {"compound": "COc1ccc(/C=C/C(=O)c2ccc(Cl)cc2)c(OC)c1", "Potency": "inconclusive [inhibitor, partial curve, poor fit]"},
      {"compound": "COc1ccc(-n2ncc3c(NCC(C)C)ncnc32)cc1", "Potency": "inconclusive [inhibitor, partial curve]"},
      {"compound": "COc1cccc(Nc2ncc3nc(CCc4ccccc4)c(=O)n(CCC#N)c3n2)c1", "Potency": "inconclusive [inhibitor, single point]"},
      {"compound": "Nc1ccc(C(=O)Nc2ccco2)cc1", "activity change, negative = inhibition": "inactive: -8.6%"},
      {"compound": "COc1ccc(N2C(=O)c3cccc4cccc(c34)C2=O)nn1", "Potency": "inconclusive [inhibitor, partial curve]"},
      {"compound": "c1ccc(Cn2c(-c3ccco3)nc3nc4ccccc4nc32)cc1", "Potency": "inconclusive [inhibitor, partial curve]"},
      {"compound": "Cc1ccc(S(=O)(=O)Nc2cc(C(F)(F)F)ccc2N2CCOCC2)cc1C", "activity change, negative = inhibition": "inactive: -4.5%"},
      {"compound": "COC(=O)CCC(=O)Nc1sc(C)c(C)c1C(N)=O", "Potency": "active: 14.1 µM"},
      {"compound": "COc1ccc(OC)c(Nc2ccc(C(=O)O)cc2[N+](=O)[O-])c1", "Potency": "active: 15.8 µM"},
      {"compound": "COc1ccc(O)c(-c2c(-c3ccc(Cl)cc3)n[nH]c2C)c1", "Potency": "inconclusive [inhibitor, single point]"},
      {"compound": "COC(=O)c1cc(Br)c(=O)n(Cc2ccc(OC)c(OC)c2)c1", "activity change, negative = inhibition": "inactive: -9.95%"},
      {"compound": "Cc1c(C(=O)N2CCCC2)sc(NC(=O)c2ccco2)c1C#N", "Potency": "inconclusive [inhibitor, partial curve]"},
      {"compound": "Cn1c(N)cc(=O)n(Cc2ccccc2)c1=O", "Potency": "inconclusive [inhibitor, single point]"},
      {"compound": "Fc1ccccc1/C=C1\\CCCC2=C1Nc1ncnn1C2c1ccccc1F", "note": "(stereo unspecified)", "Potency": "inconclusive [inhibitor, partial curve]"},
      {"compound": "CCc1nc(NCc2ccccc2)c(C#N)c2c1CCCC2", "Potency": "inconclusive [inhibitor, partial curve]"},
      {"compound": "O=C(Nc1c2c(nc3ccccc13)CCCC2)c1cccc([N+](=O)[O-])c1", "activity change, negative = inhibition": "inactive: -4.48%"},
      {"compound": "Cc1nc(N2CCN(Cc3ccccc3)CC2)c(C#N)c2c1COC(C)(C)C2", "Potency": "inconclusive [inhibitor, partial curve]"},
      {"compound": "N#C/C(=C/c1ccccc1[N+](=O)[O-])c1nnc2n1CCCCC2", "Potency": "active: 2.51 µM"},
      {"compound": "Cc1[nH]c2ccccc2c1/C=N/Nc1nc(Nc2ccc(F)cc2)nc(N2CCOCC2)n1", "activity change, negative = inhibition": "inactive: -7.95%"},
      {"compound": "CCN1CCN(CCCNC(=O)c2cc3cc4ccc(OC)cc4nc3o2)CC1", "Potency": "inconclusive [inhibitor, partial curve]"},
      {"compound": "COc1ccc(-c2ccc(SCC(=O)N3CCCC3)nn2)cc1OC", "Potency": "inconclusive [inhibitor, partial curve]"},
      {"compound": "O=C(N/N=C/c1ccc(N2CCOCC2)o1)c1cccc(C(F)(F)F)c1", "Potency": "inconclusive [inhibitor, single point]"},
      {"compound": "O=C(Nc1cccc2ncccc12)c1ccc(F)cc1", "activity change, negative = inhibition": "inactive: -4.38%"},
      {"compound": "Oc1ccc(Br)cc1C=Nc1ccc2c3c(cccc13)CC2", "Potency": "inconclusive [inhibitor, partial curve]"},
      {"compound": "O=C(NCc1ccccn1)NC1CCCCC1", "activity change, negative = inhibition": "inactive: -3.93%"},
      {"compound": "O=C1c2ccccc2-c2onc3ccc(NCCCn4ccnc4)c1c23", "activity change, negative = inhibition": "inactive: -10.5%"},
      {"compound": "CCOc1ccc(NC(=S)NC(=O)c2c(Br)cnn2C)c([N+](=O)[O-])c1", "Potency": "inconclusive [inhibitor, full curve]"},
      {"compound": "O=C(Nc1ccncc1)c1ccc(NS(=O)(=O)c2cccc(F)c2)cc1", "activity change, negative = inhibition": "inactive: -18.1%"},
      {"compound": "CCOC(=O)c1nn(-c2ccc(F)cc2)c2nc(-c3ccccc3)c(C#N)c(=O)n12", "Potency": "inconclusive [inhibitor, single point]"},
      {"compound": "CCC(=O)N(Cc1cc2cc(OC)ccc2[nH]c1=O)c1ccc(C)cc1C", "Potency": "inconclusive [inhibitor, partial curve]"},
      {"compound": "C/C(=N\\NC(=O)c1cccc(F)c1)c1ccc(Br)s1", "activity change, negative = inhibition": "inactive: -4.61%"},
      {"compound": "N#CCCn1c(=O)cnc2cnc(N3CCOCC3)nc21", "Potency": "inconclusive [inhibitor, partial curve]"},
      {"compound": "CC1=CC2=NC(=O)/C(=C\\c3cccn3CCOc3cc(C)ccc3C)C(=N)N2O1", "activity change, negative = inhibition": "inactive: -10.4%"},
      {"compound": "Cc1nc2sc3c(O)cc(=O)[nH]c3c2c(C)c1C", "Potency": "inconclusive [inhibitor, partial curve]"},
      {"compound": "CCOC(=O)c1ccc(C(=O)OCC)nc1", "activity change, negative = inhibition": "inactive: -5.84%"},
      {"compound": "Clc1ccc2c(c1)[C@H]1OCC[C@H]1[C@@H](c1ccco1)N2", "Potency": "inconclusive [inhibitor, partial curve]"},
      {"compound": "Cc1c(CCC(C)C)c(=O)n2c([nH]c3ccccc32)c1C#N", "Potency": "inconclusive [inhibitor, partial curve]"},
      {"compound": "CCOC(=O)C(=CNc1cc(C)nn1-c1ccc(Cl)cc1)C(=O)OCC", "Potency": "inconclusive [inhibitor, partial curve]"},
      {"compound": "CCCCCn1c(=O)[nH]c2cc(C(=O)NCc3ccco3)ccc2c1=O", "Potency": "inconclusive [inhibitor, single point]"},
      {"compound": "Cc1ccc(-c2cc(-c3ccc4c(c3)OCO4)c(C#N)c(N)n2)o1", "Potency": "inconclusive [inhibitor, partial curve]"},
      {"compound": "COc1ccc2cc(C3(C)NC(=O)NC3=O)ccc2c1", "note": "(stereo unspecified)", "activity change, negative = inhibition": "inactive: -5.43%"},
      {"compound": "CCc1ccccc1NC(=O)CSc1nnc([C@@H](N)Cc2ccccc2)o1", "activity change, negative = inhibition": "inactive: -12.8%"},
      {"compound": "Cc1cc(C)c2c(=O)n(CC(=O)N3CCC(N4CCCCC4)CC3)sc2n1", "Potency": "active: 12.6 µM"},
      {"compound": "O=C(Nc1ccc(-c2noc(CCc3ccccc3)n2)cc1)c1cccnc1", "Potency": "inconclusive [inhibitor, partial curve]"},
      {"compound": "Cc1cc2c(c(=O)o1)C1(C(=O)N(CC(=O)O)c3ccccc31)C(C#N)=C(N)O2", "note": "(stereo unspecified)", "activity change, negative = inhibition": "inactive: -18.2%"}
    ]}
  ]
}
